Test results published in US20060073146A1 (Genentech, published 2006).

T1: TACI (the 265 amino acid form of human TACI, hTACI (265)), expressed on transfected cells (human, UniProt O14836 1-258)
T1 sequence: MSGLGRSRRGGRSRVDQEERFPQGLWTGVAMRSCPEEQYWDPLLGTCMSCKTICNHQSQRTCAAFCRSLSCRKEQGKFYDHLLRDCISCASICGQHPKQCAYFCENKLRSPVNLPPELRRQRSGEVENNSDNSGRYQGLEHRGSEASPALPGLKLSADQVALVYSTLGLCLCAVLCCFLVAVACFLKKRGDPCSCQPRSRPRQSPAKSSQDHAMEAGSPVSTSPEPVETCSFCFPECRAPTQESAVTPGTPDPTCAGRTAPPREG

T2: DcR3-IgG (IgG1-Fc fusion of the ECD of DcR3) (human, UniProt O95407 30-300, limits assumed)
T2 construct: extracellular domain; Control immunoadhesin; not shown: IgG1 Fc
T2 sequence (looked up): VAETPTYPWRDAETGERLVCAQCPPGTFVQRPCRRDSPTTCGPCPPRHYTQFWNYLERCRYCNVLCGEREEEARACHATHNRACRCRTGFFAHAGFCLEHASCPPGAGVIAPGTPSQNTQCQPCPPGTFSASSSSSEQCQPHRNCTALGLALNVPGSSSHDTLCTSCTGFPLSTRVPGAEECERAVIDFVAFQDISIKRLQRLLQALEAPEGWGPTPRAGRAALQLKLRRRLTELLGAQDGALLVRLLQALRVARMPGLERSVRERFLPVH


Columns and labels:
[1] = target: T1, TACI (the 265 amino acid form of human …); test: expression cloning: cDNA pools in COS 7 cells, AP-TALL-1 conditioned medium, in situ AP staining
Description: To identify a receptor for TALL-1, a cDNA expression library was constructed in pRK5 vector (EP 307,247, published Mar. 15, 1989) using PolyA+ mRNA derived from the IM-9 cells [Flanagan et al., Cell, 63:185 (1990)]. Pools of ˜1000 cDNA clones (Miniprep DNA (Qiagen)) from the library were transfected (using Lipofectamine) into COS 7 cells (ATCC) in 6 well plates, which after 36-48 hours, were then incubated with AP-TALL-1 conditioned medium, washed, and stained for AP activity in situ. A positive pool was broken down to successively smaller size pools. After three rounds of screening, a single cDNA encoding an AP-TALL-1 binding activity was identified.

[2] = target: T2, DcR3-IgG (IgG1-Fc fusion of the ECD of …); test: co-immunoprecipitation (protein A or anti-Flag M2 agarose) and Western blot
Description: One μg of the purified human or Flag-LIGHT (control), Flag-APRIL, or Flag-TALL-1, or Flag-AP-APRIL, or Flag-AP-TALL-1 was incubated with 1 μg of purified human immunoadhesin containing the IgG1-Fc fusion of the ECD of DcR3 (control; Pitti et al., Nature, 396:699-703 (1998)) or TACI or BCMA overnight at 4° C. in duplicate. The TACI-ECD.hFc immunoadhesins were prepared by methods described in Ashkenazi et al., Proc. Natl. Acad. Sci., 88:10535-10539 (1991). The immunoadhesin constructs consisted of amino acids 2-166 of the human TACI polypeptide (see FIG. 1). The TACI-ECD constructs were expressed in CHO cells using a heterologous signal sequence (pre-pro trypsin amino acids 1-17 of pCMV-1 Flag (Sigma)) and encoding the human IgG1 Fc region downstream of the TACI sequence, and then purified by protein A affinity chromatography. The BCMA-ECD immunoadhesins were prepared by methods described in Ashkenazi et al., as cited above. […]
One set of reactions (FIG. 8; Panels A-C) was subjected to immunoprecipitation through the receptor-immunoadhesin with protein A-agarose (Repligen). […] The immunoprecipitates were then analyzed by Western blot with horseradish peroxidase-conjugated anti-Flag M2 mAb (Sigma) to detect the Flag-tagged ligands (FIGS. 8A-C) or horseradish peroxidase-conjugated goat anti-human IgG pAb (Amersham) to detect the receptor-immunoadhesins (FIGS. 8D-F).

binding result [1]	binding result [2]	Binder
binds		AP-TALL-1 (Example 1 construct: human placenta alkaline phosphatase fused to the N-terminus of TALL-1 […]) (ligand, Cloned into pCMV-1 Flag and expressed in 293 cells; used as conditioned medium; not shown: human placenta alkaline phosphatase (AP), PCR-amplified from pAPtag-5 (Genehunter)) not shown
	no binding (tested: 1 µg of each)	Flag-TALL-1 (ligand, not shown: small tags and cut ends, also called Blys/TALL-1) not shown
	no binding (tested: 1 µg of each)	Flag-AP-TALL-1 (Example 2 construct, TALL-1 […]) (ligand, not shown: Flag tag of the pCMV-1 Flag vector; human placental alkaline phosphatase) not shown
